Laboratory results from the supplement of paper PMC9334596.
“And” between values parts separate entries of the source, which are not always exact repeats. Identical values can stand only once. Whole data set: some 5,300 compounds, median “PER2::LUC luminescence relative to vehicle control” near 0.96, cut for the highest 2% near 1.3. The list shows a part of the results.

System: mPer2Luc MEF
Assay: PER2::LUC luminescence relative to vehicle control (fold of vehicle); higher = higher PER2::LUC reporter signal
Conditions: 10 µM
Summary of the method: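 Compounds from commercial libraries were added at 10 μM to 384-well plates seeded 48 h earlier with ~3000 mPer2Luc mouse embryonic fibroblasts per well. The cells were kept in DMEM with 10% FBS at 37 °C and 5% CO2. Luminescence was read with ONE-Glo 24 h and 30 h after treatment, then an alamarBlue viability assay was run. Values are PER2::LUC luminescence relative to vehicle control, as fold change.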

| Compound | PER2::LUC luminescence (time after treatment 24 h) | PER2::LUC luminescence (time after treatment 30 h) |
| --- | --- | --- |
| CCOC(=O)[C@@H](C)Oc1cccc2c(=O)n(CC(=O)Nc3ccc4c(c3)OCCO4)ccc12 | 1.04 | 0.843 |
| O=C(O)C1=C(CSc2nnnn2CS(=O)(=O)O)CS[C@@H]2[C@H](NC(=O)[C@H](O)c3ccccc3)C(=O)N12 | 0.992 | 0.886 |
| CC(C)CC(NC(=O)[C@H](C)N)C(=O)O (mixture of isomers) | 0.961 | 0.865 |
| Cc1c(-c2ccc(O)cc2)n(Cc2ccc(OCCN3CCCCCC3)cc2)c2ccc(O)cc12 | 0.555 and 0.523 | 0.631 and 0.56 |
| CCc1cc2c(cc1CC)CC(NC[C@H](O)c1ccc(O)c3[nH]c(=O)ccc13)C2 | 0.86 and 0.757 | 0.841 and 0.714 |
| c1cc(CN2CCCCC2)cc(OCCCNc2nc3ccccc3s2)c1 | 0.859 and 0.687 | 0.827 and 0.781 |
| COC(=O)C(O)c1ccccc1 (configuration not stated) | 1.06 | 0.999 |
| Cc1cccc(Oc2nc3c(C)cccn3c(=O)c2C=C(C#N)c2nc3ccccc3s2)c1 | 1 | 1.04 |
| O=C(O)c1cccc(-c2noc(-c3ccccc3F)n2)c1 | 1.69 | 2.11 |
| Nc1ccc(S(=O)(=O)Nc2nccs2)cc1 | 0.855 and 1.1 | 0.984 and 1.09 |
| COC(=O)N[C@H](C(=O)NNC[C@H](O)[C@H](Cc1ccccc1)NC(=O)[C@@H](NC(=O)OC)C(C)(C)C)C(C)(C)C | 0.974 | 0.963 |
| O=C1c2ccccc2C(=O)c2c(O)c(O)cc(O)c21 | 1.03 | 1 |
| Cc1ccc(-c2cc(C(F)(F)F)nn2-c2ccc(S(N)(=O)=O)cc2)cc1 | 0.919 | 0.986 |
| CC(C)[N+]1(C)[C@@H]2CC[C@H]1C[C@@H](OC(=O)C(CO)c1ccccc1)C2 (some centres not stated) | 0.769 | 0.969 |
| C=CCn1c(=O)c2c(nc(-c3ccccc3)n2C)n(C)c1=O | 0.98 | 0.951 |
| OCCn1cc(-c2ccc3c(c2)CC/C3=N\O)c(-c2ccncc2)n1 | 1.15 | 1.3 |
| CCC(C)(C)N=C(NC#N)Nc1cccnc1 | 0.948 | 0.936 |
| CN1CCc2nc(C(=O)N[C@@H]3C[C@@H](C(=O)N(C)C)CC[C@@H]3NC(=O)C(=O)Nc3ccc(Cl)cn3)sc2C1 | 1.09 | 1.04 |
| CCOC(=O)C1=C(C)NC(=S)NC1c1cccc(O)c1 (configuration not stated) | 1.06 | 1.07 |
| N#Cc1c(N(CC(=O)O)CC(=O)O)sc(C(=O)O)c1CC(=O)O | 1.18 | 1.28 |
| CC[C@H]1OC(=O)[C@H](C)[C@@H](O[C@H]2C[C@@](C)(OC)[C@@H](O)[C@H](C)O2)[C@H](C)[C@@H](O[C@@H]2O[C@H](C)C[C@H](N(C)C)[C@H]2O)[C@](C)(O)C[C@@H](C)CN(C)[C@H](C)[C@@H](O)[C@]1(C)O | 0.796 and 0.785 | 0.894 and 0.822 |

| Compound | PER2::LUC luminescence (time after treatment 24 h) | PER2::LUC luminescence (time after treatment 30 h) |
| --- | --- | --- |
| O=C1c2ccccc2C(=O)c2oc(-c3ccccc3)nc21 | 1.15 | 0.538 |
| COCCNC(=O)COc1ccc(OCCNC[C@H](O)COc2ccccc2)cc1 | 0.945 | 0.959 |
| CN[C@H]1CC[C@@H](c2ccc(Cl)c(Cl)c2)c2ccccc21 | 0.701 and 0.651 | 0.687 and 0.651 |
| O=C(/C=C/c1ccc(O)c(O)c1)O[C@H](Cc1ccc(O)c(O)c1)C(=O)O | 0.985 | 0.934 |
| O=C1/C(=C/c2ccc(O)c(O)c2)Oc2c1ccc(O[C@@H]1O[C@H](CO)[C@@H](O)[C@H](O)[C@H]1O)c2O | 0.983 | 0.93 |
| CC(C)C[C@H](N)CS | 1.03 | 0.835 |
| C=C1O[C@@](CO)(n2cnc3c(N)ncnc32)[C@H](O)[C@@H]1O | 1.07 | 0.943 |
| COC(=O)[C@H](Cc1ccccc1)NC(=O)[C@@H](N)CC(=O)O | 0.847 | 1.18 |
| C[C@H]1CC[C@@]2(OC1)O[C@H]1C[C@H]3[C@@H]4CC[C@@H]5C[C@@H](O)CC[C@]5(C)[C@H]4CC[C@]3(C)[C@H]1[C@@H]2C | 1.01 | 1.04 |
| C1CCC(N=C(NC23CC4CC(CC(C4)C2)C3)N2CCOCC2)CC1 | 0.978 | 0.95 |
| COC(=O)c1c(OC)cc2c(c1C)Oc1c(Cl)c(O)c(Cl)c(C)c1C(=O)O2 | 0.952 | 0.932 |
| COc1cc(CNC(=O)CCCC/C=C/C(C)C)ccc1O | 0.847 | 0.928 |
| O=C(NCCCN1CCOCC1)c1ccc(Cl)cc1 | 1.08 | 1.1 |
| O=C(O)C[C@H]1CC[C@H](c2ccc(-c3ccc(Nc4ccc(C(F)(F)F)nc4)cn3)cc2)CC1 | 1.11 | 1.13 |
| CNC(=O)[C@@H](NC(=O)[C@H](CC(C)C)[C@H](O)C(=O)NO)C(C)(C)C | 0.485 | 0.866 |
| C[C@]12CC[C@@H]3c4ccc(O)cc4C[C@@H](CCCCCCCCC[S+]([O-])CCCC(F)(F)C(F)(F)F)[C@H]3[C@@H]1CC[C@@H]2O (some centres not stated) | 1.02 | 1.01 |
| C=C[C@](C)(O)CC[C@@H]1[C@@]2(C)CCCC(C)(C)[C@@H]2CC[C@@]1(C)O | 0.549 | 0.865 |
| CO/N=C(\C(=O)N[C@@H]1C(=O)N2C(C(=O)O)=C(COC(C)=O)CS[C@H]12)c1csc(N)n1 | 0.908 | 0.822 |
| Cc1cc(Oc2ccc3nc(COc4ccc(CC5SC(=O)NC5=O)cc4)n(C)c3c2)cc(C)c1N (configuration not stated) | 1.1 | 1.03 |
| CC(C)Oc1ccc2c(=O)c(-c3ccccc3)coc2c1 | 1.9 | 1.92 |
| CC(C)c1c2cc(-c3ccnc(NC4CCC(NC5CCOCC5)CC4)n3)ccc2nn1C (configuration not stated) | 0.008 | 0.002 |

| Compound | PER2::LUC luminescence (time after treatment 24 h) | PER2::LUC luminescence (time after treatment 30 h) |
| --- | --- | --- |
| Cc1cc2cc3c(C)cc(=O)oc3c(C)c2o1 | 0.953 and 0.55 | 0.902 and 1.1 |
| CC(=O)Nc1c(I)cc(I)c(C(=O)O)c1I | 1.03 and 0.947 | 0.949 and 1.27 |
| CC(=O)O[C@]1(C)CC[C@@]23C[C@H]1C(C)(C)[C@@H]2CC[C@H]3C | 0.953 | 0.904 |
| CC(=O)Nc1nnc(S(N)(=O)=O)s1 | 0.944 | 1.2 |
| CCCCOc1ccc(C(=O)Nc2ccc(F)cc2F)cc1 | 1.29 | 1.34 |
| Nc1nc(OCc2cc(Br)cs2)c2[nH]cnc2n1 | 0.785 | 0.946 |
| Clc1ccc2nsnc2c1NC1=NCCN1 | 1.02 | 0.976 |
| Cc1cc(Nc2cc(N3CCN(C)CC3)nc(Sc3ccc(NC(=O)C4CC4)cc3)n2)n[nH]1 | 0.563 | 0.414 |
| O=C(O)CCC(C(=O)O)N1C(=O)c2ccccc2C1=O (configuration not stated) | 0.925 | 1.06 |
| NC1(Cc2ccc(Cl)cc2)CCN(c2ncnc3[nH]ccc23)CC1 | 0.438 | 0.584 |
| CC(C)CC[C@@H](O)[C@](C)(O)[C@H]1CC[C@@]2(O)C3=CC(=O)[C@]4(O)C[C@@H](O)[C@@H](O)C[C@]4(C)[C@H]3[C@H](O)C[C@]12C | 1.22 | 1.26 |
| O=C(CCCl)NCCc1ccccc1 | 1.07 and 1.1 | 1.03 and 0.991 |
| Cn1nnnc1SCC1=C(C(=O)O)N2C(=O)[C@@H](NC(=O)C(OC=O)c3ccccc3)[C@H]2SC1 (some centres not stated) | 0.605 | 0.705 |
| OC[C@@H](O)[C@@H](O[C@@H]1O[C@H](CO)[C@@H](O)[C@H](O)[C@H]1O)[C@H](O)[C@@H](O)CO | 0.932 | 0.857 |
| CCOC(=O)C1=C(N)Oc2ccc(Br)cc2C1C(C#N)C(=O)OCC (configuration not stated) | 0.958 | 0.94 |
| COc1cc(O)c2c(=O)cc(C)oc2c1CC=C(C)C | 0.883 | 0.963 |
| O[C@@](Cc1ncc(CC2(C(F)(F)F)CC2)[nH]1)(c1ccc(-n2cccn2)cc1)C(F)(F)F | 0.966 | 0.921 |
| CC(C)[C@@H]1C(=O)N(S(C)(=O)=O)[C@@H]2CCN(C(=O)/C=C/CN3CCCCC3)[C@H]21 | 1.04 | 0.988 |
| Cc1ccc(S(=O)(=O)Nc2nc3ccccc3nc2Nc2ccc3nsnc3c2)cc1 | 1.06 | 1.04 |
| O=[N+]([O-])c1ccc(Nc2nc(N3CCOCC3)nc(N3CCOCC3)n2)cc1 | 0.79 | 0.79 |
| CCCCOc1cc(C(=O)OCCN(CC)CC)ccc1N | 0.825 and 0.797 | 0.997 and 0.806 |

| Compound | PER2::LUC luminescence (time after treatment 24 h) | PER2::LUC luminescence (time after treatment 30 h) |
| --- | --- | --- |
| NC(N)=N[C@@H](CCC(=O)O)C(=O)O | 1.09 | 0.976 |
| N#C/C(=C1/SC[C@@H](c2ccc(Cl)cc2Cl)S1)n1ccnc1 | 1.34 | 1.11 |
| C[N+](C)(C)CC(O)CC(=O)[O-] (configuration not stated) | 0.975 and 0.949 | 0.995 and 0.892 |
| Nc1nc(=O)n([C@@H]2CS[C@H](CO)O2)cc1F | 1.13 | 1.23 |
| COc1ccc(Cl)cc1C(=O)NCCc1ccc(S(=O)(=O)NC(=O)NC2CCCCC2)cc1 | 1.05 and 0.953 | 1.01 and 0.842 |
| CC[C@@H]1C(=O)N(C)c2cnc(Nc3ccc(C(=O)N[C@H]4CC[C@H](N5CCN(CC6CC6)CC5)CC4)cc3OC)nc2N1C(C)C | 0.051 | 0.064 |
| CCc1cccc(CC)c1NC(=O)N1Cc2[nH]nc(NC(=O)c3ccc(N4CCN(C)CC4)cc3)c2C1 | 0.711 | 0.658 |
| CC#C[C@]1(O)CC[C@H]2[C@@H]3CCC4=CC(=O)CCC4=C3[C@@H](c3ccc(N(C)C)cc3)C[C@@]21C | 0.718 | 0.823 |
| COc1cc(SC)ccc1C(=O)N1CCC(Cc2ccccc2)CC1 | 0.982 | 0.976 |
| Cc1ncc(-c2csc(N=C(N)N)n2)[nH]1 | 1.07 | 1.03 |
| COC(=O)C1=CO[C@@H](O)[C@@H]2C(CO)=CC[C@H]12 | 0.961 | 0.959 |
| Cc1nc(C(=O)NCC(=O)O)c(O)c2ccc(Oc3ccccc3)cc12 | 1.06 and 0.974 | 1.07 and 0.971 |
| CCCCCCNC(=O)n1cc(F)c(=O)[nH]c1=O | 1.19 | 1.06 |
| CCC[C@@H]1C[C@@H](C(=O)N[C@@H]([C@H]2O[C@H](SC)[C@H](OP(=O)(O)O)[C@@H](O)[C@H]2O)[C@H](C)Cl)N(C)C1 | 1.07 | 1.01 |
| CCCOc1ccccc1-c1nc2[nH]nnc2c(=O)[nH]1 | 1.08 | 1.04 |
| Cn1cc(C(F)(F)F)nc1-c1ccc(OCC(O)CNCCOc2ccc(O)c(C(N)=O)c2)cc1 (configuration not stated) | 0.984 | 1.01 |
| CN1CCN2c3ncccc3Cc3ccccc3C2C1 (configuration not stated) | 1.03 and 0.928 | 0.815 and 0.834 |
| CC[C@H](NC(=O)[C@H](C)NC)C(=O)N1C[C@@H](O)C[C@H]1Cc1c(-c2[nH]c3cc(F)ccc3c2C[C@@H]2C[C@H](O)CN2C(=O)[C@H](CC)NC(=O)[C@H](C)NC)[nH]c2cc(F)ccc12 | 0.958 | 0.884 |
